Drawing on PMC10917059, this text covers binding for seven substances.

By UniProt entry, the sequences of proteins in these tests, tags left out. Where a name states a change or a piece, a line headed by the entry shows the natural chain unless it says otherwise. Chains listed by the source or under a name are the forms on record and can include a tag or linker. Residues count along the entry.
UniProt Q7L0Q8: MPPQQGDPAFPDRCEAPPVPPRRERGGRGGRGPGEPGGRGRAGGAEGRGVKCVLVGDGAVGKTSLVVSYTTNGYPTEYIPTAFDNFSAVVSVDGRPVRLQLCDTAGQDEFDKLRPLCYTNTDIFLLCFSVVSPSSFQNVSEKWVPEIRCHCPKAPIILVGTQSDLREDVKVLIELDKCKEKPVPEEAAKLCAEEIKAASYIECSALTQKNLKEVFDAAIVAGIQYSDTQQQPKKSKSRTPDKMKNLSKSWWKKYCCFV
GFP–RhoU(204–258): residues 204-258 of Q7L0Q8
GFP–RhoU(231–258)mut (Q7L0Q8, form named): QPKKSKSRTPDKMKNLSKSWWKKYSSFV
UniProt Q13177: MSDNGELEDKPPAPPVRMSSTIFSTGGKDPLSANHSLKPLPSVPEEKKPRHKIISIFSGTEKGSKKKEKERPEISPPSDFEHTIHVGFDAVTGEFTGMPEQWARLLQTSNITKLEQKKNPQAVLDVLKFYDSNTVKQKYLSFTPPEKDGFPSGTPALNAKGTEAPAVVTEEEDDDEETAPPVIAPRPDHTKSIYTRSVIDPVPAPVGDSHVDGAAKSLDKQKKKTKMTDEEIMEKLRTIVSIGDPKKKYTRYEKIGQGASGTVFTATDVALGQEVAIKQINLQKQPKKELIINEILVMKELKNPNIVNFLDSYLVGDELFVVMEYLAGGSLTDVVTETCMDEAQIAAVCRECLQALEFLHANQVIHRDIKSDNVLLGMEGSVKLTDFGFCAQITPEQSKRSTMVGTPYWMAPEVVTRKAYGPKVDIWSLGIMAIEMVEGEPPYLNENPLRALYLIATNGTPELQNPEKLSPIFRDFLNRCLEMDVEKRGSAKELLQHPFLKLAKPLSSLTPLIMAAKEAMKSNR

For experiment [1], the target named is Myc–RhoU (human) (UniProt Q7L0Q8). Description: co-IP; lysates of co-transfected COS7 cells, Myc-Trap agarose beads, 1 h at 4°C, 10 mM Tris-HCl pH 7.5, 150 mM NaCl, NP40; blots with anti-GFP, anti-Myc and anti-HA; in Fig. 2D cells treated with DMSO or 100 µM 2-BP for 2 h.
The target in another experiment is Myc–PAK2 (UniProt Q13177). Described as above.
Experiment [2] deals with Myc–RhoU(231–258) (human) (UniProt Q7L0Q8). Described as above.
For experiment [3], the target named is GFP–RhoU(231–258) (human) (UniProt Q7L0Q8). Briefly: co-IP; lysates of co-transfected COS7 cells, GFP-Trap agarose beads, 1 h at 4°C, 10 mM Tris-HCl pH 7.5, 150 mM NaCl, NP40; blots with anti-GFP and anti-Myc.
For experiment [4], the target named is GFP–RhoU (human) (UniProt Q7L0Q8). The description is as above.
Experiment [5] deals with GFP–RhoU(C255S, C256S) (human) (UniProt Q7L0Q8). Described as above.
The target in experiment [6] is GFP–RhoU(204–258) (human) (UniProt Q7L0Q8). The experiment is described as above.
In experiment [7] the target is Myc–RhoU (human) (UniProt Q7L0Q8). Briefly: cross-linking; lysates of transfected COS7 cells in 20 mM HEPES pH 7.2, 1% Triton X-100, incubated with DSS (0.25 mM in the methods; increasing concentrations in the results) or DMSO for 30 min at 4°C; anti-Myc blot.
The target in experiment [8] is GFP–RhoU (human) (UniProt Q7L0Q8). Description: FRET or BRET; FLIM-FRET of GFP and mCherry fusions in PC3 cells on fibronectin-coated glass, fixed after 4 h. (BRET reads energy transfer from a luciferase to a nearby fluorophore.)
Experiment [9] shares this target. Briefly: FRET or BRET; FLIM-FRET of GFP and mCherry fusions in nucleofected Jurkat cells on fibronectin with 1 ng/ml CXCL12, fixed after 15 min.

These are yes or no findings as the source states them, for the method shown. Binding seen in cells or lysates may run through a third protein. Some binding calls cover weakened binding; strength is not graded here.

With “GFP–RhoU(Q107L) (from UniProt Q7L0Q8-1 1-258)”, the binding entry with Myc–RhoU (human) [1] is recorded as “binds”.

Take “GFP–RhoU(231–258)mut (from UniProt Q7L0Q8 231-258) (domain or fragment)”: the binding entry with Myc–RhoU (human) [1] is “no binding”.

As for HA–RhoU (from UniProt Q7L0Q8 1-258), the binding result with Myc–RhoU (human) [1] and with Myc–PAK2 was “binds” in each case.

As for GFP–RhoU (from UniProt Q7L0Q8-1 1-258), the binding entry (in experiment [2]; with Myc–RhoU (human) [1]) was “binds” each time.

As to Myc–RhoU (from UniProt Q7L0Q8-1 1-258), the binding result in [3] is on record as “binds”; with GFP–RhoU (human) [4], “binds”; in [5], “no binding”; in experiment [6] it was “binds”; in the experiment with Myc–RhoU (human) [7] it was “binds”.

As for “GFP–RhoU(231–258) (from UniProt Q7L0Q8-1 231-258) (domain or fragment)”, the binding result in [2] is recorded as “binds”.

As to “mCherry–RhoU (from UniProt Q7L0Q8-1 1-258)”, the binding entry with GFP–RhoU (human) [8] and with GFP–RhoU (human) [9] was “binds” in each case.
